24 molecules from PubChem BioAssay AID1479 (National Center for Advancing Translational Sciences (NCATS), 2009) can be followed below.

Among all 280,000 compounds or so, about 820 (0.29%) were called active. Inconclusive results (about 1%) are left out. Calls come from the whole dose curve; as a rule, active = well fitted curve in either direction with a large enough effect; inconclusive = small, poorly fitted or top-dose-only effect; inactive = flat fitted curve, though single readings scatter. Only a part is listed here, and it is no random draw.
% is set by controls: 0 for no effect and ±100 for the full control effect; potency is the fitted concentration of half-maximal effect; tags give direction and shape of the fitted curve or compound fluorescence and quenching.

A short description of this assay: Total Fluorescence Counterscreen for Inhibitors of the Interaction of Thyroid Hormone Receptor and Steroid Receptor Coregulator 2. The note with it: TRb/SRC2 Texas Red total fluorescence interference; series mostly up to 106 µM; fluorescence change, negative = quenching: at the top concentration. In short, it runs like this: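 Human TRβ ligand-binding domain (0.6 uM) and Texas Red SRC2 peptide (20 nM) in Tris buffer with 1 uM T3 and 5% DMSO were incubated with pinned compound for 5 hr at ambient temperature. Total fluorescence was computed as S + 2P (555/632 nm).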
A general note: A counterscreen serves to expose hits that act by an unwanted route or on another target.
Turning to `Cc1ccc(S(=O)(=O)N2CCC(=O)N(C(COC(=O)Nc3ccccc3)Cc3ccccc3)CC2)cc1` (centres undefined), the “fluorescence change, negative = quenching” value (shortened to “fluorescence change”) was inactive: -1.01%.

Regarding `CC1CC[C@@]2(C(=O)O)CC[C@]3(C)C(=CCC4[C@@]5(C)CCC(O)C(C)(C)C5CC[C@@]43C)C2C1C` (some centres undefined), the “fluorescence change” value is inactive: -4.44%.

For `CC[n+]1ccc(/C=C/c2ccc(N(C)C)cc2)c2ccccc21`, the Potency was active: 31.6 µM [fluorescent].

Regarding `Cc1cc(NC(=O)Cn2c(=O)nc(-c3ccccc3F)c3cc(Cl)ccc32)ccc1Br`, the Potency was active: 0.0355 µM [quencher]. On the same count and under the same terms, the value for `CN(C)c1ccc(/C=C/C=C2/SC(=S)N(c3ccccc3)C2=O)cc1` was active: 3.16 µM [fluorescent]. Regarding `CCc1ccccc1NC(=O)Cn1c(=O)n(-c2ccc(CC(=O)NCC3CCCO3)cc2)c(=O)c2ccccc21` (centres undefined), the “fluorescence change” value is inactive: -0.399%. For `CC(=O)N[C@H](CS)C(=O)O`, the “fluorescence change” value was inactive: -1.64%. On to `Cn1c(-n2cccc2)c(-c2c(-c3ccccc3)[nH]c3c2c(=O)n(C)c(=O)n3C)c(=O)n(C)c1=O`, for which the Potency is active: 25100 µM [quencher]. Turning to `N#C/C(=C\C1=C(N2CCOCC2)C(=C\c2ccc(Cl)cc2)/CC1)C(=O)Nc1ccccc1F`, the Potency was active: 50.1 µM [fluorescent]. Take `Cc1ccc(N=Nc2c(O)ccc3ccccc23)c(C)c1`: the Potency is active: 44.7 µM [fluorescent]. The same measure, in the same setting: the figure for `COC(=O)c1c(NC(=O)Cc2coc3cc(C)ccc23)sc2c1CCC2` is active: 3.55 µM [quencher]. `COc1cc(/C=N/NC(=O)C(Cc2c[nH]c3ccccc23)NC(=O)OCC(C)C)cc([N+](=O)[O-])c1O` (centres undefined): the “fluorescence change” value is inactive: -1.57%.

In the case of `CCCCNC(=O)CSc1nc2cc3c(cc2c(=O)n1CCCC(=O)NCCc1ccc(OC)c(OC)c1)OCO3`, the “fluorescence change” value was inactive: -0.879%.

For the molecule `CCOc1ccc(-c2ccc(/C=C3/C(=N)N4C(C)=CSC4=NC3=O)o2)c([N+](=O)[O-])c1`, the Potency is active: 79.4 µM [quencher]. Turning to `COc1ccc(COc2cc(-c3cccc(OC)c3)nc3ccc(NC(=O)c4ccccc4)cc23)cc1`, the “fluorescence change” value was inactive: -2.87%. Take `CC1=C(C#N)C(=O)OC(C)(C)C1`: the Potency is active: 44.7 µM [fluorescent]. Consider `CCc1ccc(NC(=O)c2cc(-c3cccs3)on2)cc1`, for which the “fluorescence change” value was inactive: -4.37%. For `CCOC(=O)c1c(NC(=O)/C=C/c2ccc(OC)c(OC)c2)sc(C(C)=O)c1C`, the Potency was active: 562 µM [quencher]. As for `CCN1CC2=C(OC(N)=C(C#N)C2c2ccccc2)/C(=C\c2ccccc2)C1` (centres undefined), the Potency was active: 44.7 µM [fluorescent]. `COc1ccc(/C=C/C(=O)CC(=O)/C=C/c2cccc(O)c2OC)cc1O`: the “fluorescence change” value was inactive: -25.5%.

Consider `C[C@@H]1[C@H](O)[C@@H](C)/C=C/C=C/C=C/C=C/C=C/C=C/C=C/[C@H](O[C@@H]2O[C@H](C)[C@@H](O)[C@H](N)[C@@H]2O)C[C@@H]2O[C@](O)(C[C@@H](O)C[C@@H](O)[C@H](O)CC[C@@H](O)C[C@@H](O)CC(=O)O[C@H]1C)C[C@H](O)[C@H]2C(=O)O`, for which the “fluorescence change” value is inactive: 1.63%.

Regarding `Cc1ccc(C(=O)NN2C(=O)C3C4c5ccccc5C(c5ccccc54)C3C2=O)cc1` (centres undefined), the “fluorescence change” value was inactive: -2.78%. Turning to `CCOC(=O)c1c(S(=O)(=O)NCC(=O)N2CCN(c3cccc(Cl)c3)CC2)c(C)n(C)c1C`, the Potency is active: 0.355 µM [quencher]. With `NC12CC3CC(CC(C3)C1)C2`, the Potency result was “inactive”.
